{"source": "paper PMC12136788", "binders": {"B1": {"name": "chr4:41958937:41959038:+|3pUTR|ENSG00000109133|msi1|total|mutant (ssRNA)", "RNA": "GGGAGUUCUACAGUCCGACGAUCUCUUGAACUCCUGGCCUCAAGUGAUCUGCCCGCCUCGACCUCCCAGAGUGCUGGGAUUACCGGUGUGAGCCACUAAGCCUGGCUGAGACAACCCGUUUCCCUUAACUCAUUGGAAUUCUCCAACAGAGGAUUGAGCAUCA"}, "B2": {"name": "chr3:69085097:69085224:+|CDS|ENSG00000144746|unk|total|mutant (ssRNA)", "RNA": "GGGAGUUCUACAGUCCGACGAUCGGGUUCCGAUCGCUUUGCCCGGCCGGACUUCAGGGACAUUUCCAAAUGGAACAACCGCGCCGUGAGCAACCUGCUCUAUUACCAGACCAACUACCUGGUGGUGGCUGCCAUGAUGAUUUCCAACAGAGGAUUGAGCAUCA"}, "B3": {"name": "ENSG00000198589:be:win_2151|CDS|ENSG00000198589|bound_else_gene|NA|bound_elsewhere_windowed (ssRNA)", "RNA": "GGGAGUUCUACAGUCCGACGAUCAAGGAAUGGGUUACGUGUUAUCUACAAACUUCUGGCAUCGAAAAGUGAAGGAAUCAGGGUACAAGCUCUUAAGGCAAUGGGUUAUUUUUUAAAACAUCUGGCCCCAAAGAGGAAAGCAGACAACAGAGGAUUGAGCAUCA"}, "B4": {"name": "ENSG00000107863:be:win_6201|3pUTR|ENSG00000107863|bound_else_gene|NA|bound_elsewhere_windowed (ssRNA)", "RNA": "GGGAGUUCUACAGUCCGACGAUCACUAACAAAAGUGCCUCAUCAUAAAAAUACAGUUGGUUUUUAGGGUGCCAUAUUGUUAAAAUUAGAUAACUUACUUACAUUGAAUAAACGAAUGCGUUUUAUUGGUAACAGAUAUCAUUACAACAGAGGAUUGAGCAUCA"}, "B5": {"name": "chr17:49053040:49053141:+|3pUTR|ENSG00000159217|unk|FALSE|unique (ssRNA)", "RNA": "GGGAGUUCUACAGUCCGACGAUCCUCAGCUCCUGUGAGGGGUCUGGUUAGGAGAGAGCCAUUUUUAAGGACAGGGAGUUUUAUAGCCCUUUUCUACUUUCCUCCCCUCCUCCCAGUCCUUAUCAAUCUUUUUUCCUUUUUCCUCAACAGAGGAUUGAGCAUCA"}, "B6": {"name": "ENSG00000186448:stop:overlap|stop_codon|ENSG00000186448|stop_codon|NA|stop_codon (ssRNA)", "RNA": "GGGAGUUCUACAGUCCGACGAUCUUGAGGAAUUCUCUUGGCUACAAAACACCAAUGAGUCCAAGAUUGAGAUUCAGAAAAUCUAGUGUCAUAUGUAAAAUGGAAUAGAAUCCCUGCCUACUUAAGUAACUGUUGGACAAAUGACAACAGAGGAUUGAGCAUCA"}, "B7": {"name": "ENSG00000198589:be:win_51|CDS|ENSG00000198589|bound_else_gene|NA|bound_elsewhere_windowed (ssRNA)", "RNA": "GGGAGUUCUACAGUCCGACGAUCCGGGGGAGGUGGAGGGAGAGAAGAAACCCCUACUGAAGGGGGUGCAUUGUCUCUGAAACCAGGGCUCCCCAUCAGGGGCAUCAGAAUGAAAUUUGCCGUGUUGACCGGUUUGGUUGAAGUCAACAGAGGAUUGAGCAUCA"}, "B8": {"name": "chr6:56640275:56640385:-|CDS|ENSG00000151914|unk|FALSE|bound_elsewhere (ssRNA)", "RNA": "GGGAGUUCUACAGUCCGACGAUCGACUUCCCGCCUGACUCCAUCUGUCACUCCAGCUUAUACACCUGGUUUCCCAUCAGGAUUAGUUCCAAAUUUCAGUUCAGGAGUAGAGCCAAAUUCAUUGCAAACUUUGAAGUUGAUGCACAACAGAGGAUUGAGCAUCA"}, "B9": {"name": "chr7:95359871:95360131:-|three_prime_utr|ENSG00000105852|control|control|control (ssRNA)", "RNA": "GGGAGUUCUACAGUCCGACGAUCCAAUGGCUCUGUGCUUCAGGGCACCUCUGUGGCUUCUGUGUACCAUGGGAAAAUUCUCAUAGGCACCGUAUUUCACAAAACUCUGUACUGUGAGCUCUAGACUCUAGAUAGUAAAAAAAACAACAGAGGAUUGAGCAUCA"}, "B10": {"name": "chr11:5233990:5234213:-|CDS|ENSG00000223609|control|control|control (ssRNA)", "RNA": "GGGAGUUCUACAGUCCGACGAUCGAUGCUGUUAUGGGCAACCCUAAGGUGAAGGCUCAUGGCAAGAAGGUGCUAGGUGCCUUUAGUGAUGGCCUGGCUCACCUGGACAACCUCAAGGGCACUUUUUCUCAGCUGAGUGAGCUGCAACAGAGGAUUGAGCAUCA"}, "B11": {"name": "chr9:34086386:34088349:-|three_prime_utr|ENSG00000198876|control|control|control (ssRNA)", "RNA": "GGGAGUUCUACAGUCCGACGAUCCUCAGUUUCCUUGUUUCUUUUGAUUUUUUUUUUCCUAAUUGUGUGAGGCUCUUGUGUUUUAGUGGGAACACCAAAGUUUGCCUAUAGUUUAGGCACUUAAUAGGAAGAAGCUCUGUACAGCAACAGAGGAUUGAGCAUCA"}, "B12": {"name": "chr2:162011792:162011987:-|CDS|ENSG00000197635|control|control|control (ssRNA)", "RNA": "GGGAGUUCUACAGUCCGACGAUCACUGUCUUCAGACUGAACUGGGCCACUUACCUUGCAAGCACAGAAAACAUUAUAGUAGCUAGCUUUGAUGGCAGAGGAAGUGGUUACCAAGGAGAUAAGAUCAUGCAUGCAAUCAACAGACAACAGAGGAUUGAGCAUCA"}, "B13": {"name": "chr15:85746268:85746369:+|3pUTR|ENSG00000170776|msi1|FALSE|bound_elsewhere (ssRNA)", "RNA": "GGGAGUUCUACAGUCCGACGAUCUGUUUUAUUUAUUGUAUUUGUGUGUUUGUGUUUGUUUUUUUUUAAGGGUGAGCCAGGUCUAGCCCAACAGUCUAAACUAUCCAGUCAAUACCGAGUGAAGUGGCAGCCAGCACUGUUCACCAACAGAGGAUUGAGCAUCA"}, "B14": {"name": "ENSG00000070961:be:win_5501|3pUTR|ENSG00000070961|bound_else_gene|NA|bound_elsewhere_windowed (ssRNA)", "RNA": "GGGAGUUCUACAGUCCGACGAUCCAGUAAUCCUCUGCAGGUCUUAGAAACACAUUGGCUCUGUCAGCAUUUGUAAUUGUACAUUUAUUCAUCAGGUAUUUAUAGUGAAUCAUACUGUAAAAAAGAGGUAGCAUGAUAUGCUGGCAACAGAGGAUUGAGCAUCA"}, "B15": {"name": "chr11:113276125:113276317:+|3pUTR|ENSG00000149294|msi1|FALSE|unique (ssRNA)", "RNA": "GGGAGUUCUACAGUCCGACGAUCGUCCGUGUAAAAUAGCUGCCUUUUAUUUUUUAAGGUAACAAAUACCACCUAGAGGUAGGUAGGAUCAUCCCACGCUUGCUUUAGCACAGGACAACUUUACAAAACAUGAUUGUUUACAGCCAACAGAGGAUUGAGCAUCA"}, "B16": {"name": "chr2:27376893:27376994:+|3pUTR|ENSG00000115234|msi1|FALSE|unique (ssRNA)", "RNA": "GGGAGUUCUACAGUCCGACGAUCGGGCUGGCUGCACAGAGGAUUGCCCCUUCUCUUUUCAGAGCUGGCCCUCGAUGCCAAAUUAGCAUUUAGUAUUUUGCACAAAGUCUAAGGGACCAUGGCUGCCUGCCUUGGGGAGGAACCCAACAGAGGAUUGAGCAUCA"}, "B17": {"name": "ENSG00000010278:stop:overlap|stop_codon|ENSG00000010278|stop_codon|NA|stop_codon (ssRNA)", "RNA": "GGGAGUUCUACAGUCCGACGAUCUUGGCAUGAUCUUCAGUAUGAUCUUGUGCUGUGCUAUCCGCAGGAACCGCGAGAUGGUCUAGAGUCAGCUUACAUCCCUGAGCAGGAAAGUUUACCCAUGAAGAUUGGUGGGAUUUUUUGCAACAGAGGAUUGAGCAUCA"}, "B18": {"name": "chr6:52501983:52502084:-|3pUTR|ENSG00000065308|msi1|total|mutant (ssRNA)", "RNA": "GGGAGUUCUACAGUCCGACGAUCGGCCGCCCUUGUUGAGUGUUCUUUGGAAUUGUCGUUUUUUGAGCACAACUACAGCAUUUCCGACUGCAUGAAACCAUGACUGACUGAGAGUCACUCUCUGGGCCGAUGACCGGCGCCUUUCAACAGAGGAUUGAGCAUCA"}, "B19": {"name": "chr6:89084018:89084151:+|CDS|ENSG00000146278|unk|FALSE|unique (ssRNA)", "RNA": "GGGAGUUCUACAGUCCGACGAUCACUGAAGUGAGCCAAAAGGAAAAUUAUGCUGGGGCAAAGUUUAGUGAUCCACCUUCUCCUAGUGUUCUUCCAAAGCCUCCUAGUCACUGGAUGGGAAGCACUGUUGAAAAUUCCAACCAACAACAGAGGAUUGAGCAUCA"}, "B20": {"name": "chr11:103061782:103061883:-|3pUTR|ENSG00000137692|unk|FALSE|unique (ssRNA)", "RNA": "GGGAGUUCUACAGUCCGACGAUCAAGACUGUUGGCCUUGACUUCUGGGAUAAUGAUUUGCUGAUGCAGCUAAUAAACAUUUCUAGGUAUUGGAAAAAUGCUCCUACUUUUAGCUCUGGGUUUCUAUAAAAGCUGCCAAGGUCUCAACAGAGGAUUGAGCAUCA"}, "B21": {"name": "chr12:49796586:49796721:-|CDS|ENSG00000167566|msi1|FALSE|unique (ssRNA)", "RNA": "GGGAGUUCUACAGUCCGACGAUCGAGGCCCACAGGCCAGGCUUCGGUGCUACCUCAGAGGGCCAGGGGCCCCUCCCCUUCCUUAGCAUGUUCAUGGGUGCUGGGGAUGCCCCACUGGGCUCUCGGCCUGGCCACCCCCAUUCCCAACAGAGGAUUGAGCAUCA"}, "B22": {"name": "ENSG00000136451:be:win_3051|3pUTR|ENSG00000136451|bound_else_gene|NA|bound_elsewhere_windowed (ssRNA)", "RNA": "GGGAGUUCUACAGUCCGACGAUCUGUGUUAAUCUUGCAGAAUGUUUGCAGGACUGACUAUCAAACUGGAUGAUUUCCAUUUAUACCCUACUGUGUCAGUUCAAGCAUCAAAAUACCUUGCAUCUGAGACAGACUUCCUACAUCCAACAGAGGAUUGAGCAUCA"}}, "note": "Some of the results follow."}
{"target": "MSI1 full-length (mouse, UniProt Q61474 1-362)", "sequence (Q61474 whole entry)": "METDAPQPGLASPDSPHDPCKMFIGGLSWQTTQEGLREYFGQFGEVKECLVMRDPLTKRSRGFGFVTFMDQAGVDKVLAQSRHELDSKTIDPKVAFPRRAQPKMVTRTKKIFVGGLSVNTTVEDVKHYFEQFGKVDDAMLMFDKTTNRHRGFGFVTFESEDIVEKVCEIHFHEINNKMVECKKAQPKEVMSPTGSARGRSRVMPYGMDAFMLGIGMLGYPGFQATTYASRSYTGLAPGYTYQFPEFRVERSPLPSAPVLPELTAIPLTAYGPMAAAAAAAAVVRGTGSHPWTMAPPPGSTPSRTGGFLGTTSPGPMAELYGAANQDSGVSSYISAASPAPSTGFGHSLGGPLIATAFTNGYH", "assay": "nsRBNS (natural sequence RNA bind-n-seq); RBNS binding buffer (assumed for nsRBNS): 25 mM Tris pH 7.5, 150 mM KCl, 3 mM MgCl2, 0.01% Triton X-100, 500 ug/ml BSA, 20 U/ml SUPERase-In, 4 C; UNK is unkempt and MSI1 is Musashi-1; names of the RNAs are library labels; protein concentration not given here; high values mean tight binding", "units": {"binding signal": "enrichment R"}}
{"binder": "B1", "binding signal": 0.384}
{"binder": "B2", "binding signal": 0.282}
{"binder": "B3", "binding signal": 0.467}
{"binder": "B4", "binding signal": 1.25}
{"binder": "B5", "binding signal": 1.26}
{"binder": "B6", "binding signal": 1.03}
{"binder": "B7", "binding signal": 0.39}
{"binder": "B8", "binding signal": 0.605}
{"binder": "B9", "binding signal": 1.64}
{"binder": "B10", "binding signal": 0.37}
{"binder": "B11", "binding signal": 4.2}
{"binder": "B12", "binding signal": 5.26}
{"binder": "B13", "binding signal": 5.8}
{"binder": "B14", "binding signal": 2.21}
{"binder": "B15", "binding signal": 0.716}
{"binder": "B16", "binding signal": 1.07}
{"binder": "B17", "binding signal": 0.361}
{"binder": "B18", "binding signal": 0.296}
{"binder": "B19", "binding signal": 0.343}
{"binder": "B20", "binding signal": 0.412}
{"binder": "B21", "binding signal": 0.353}
{"binder": "B22", "binding signal": 0.207}
